# Inconclusive results and toxic doses are left out. A number of entries come with more than one value. Only these are listed. The source may hold further records. Results that share an entry differ for a reason that is not stated; some may be repeats, others may stem from another dose, organism or construct than stated.
# Test system: L1210 leukemia ip in BDF1 mice, survival T/C
# Experiment: NCI In Vivo Anticancer Drug Screen. Data for tumor model L1210 Leukemia (intraperitoneal) in B6D2F1 (BDF1) mice
# Details: higher = longer survival
SMILES,"T/C (endpoint: mean survival time, dose: 60.0 mg/kg/injection, schedule: Q01DX001 (ip), vehicle: carboxymethylcellulose (CMC))","T/C (endpoint: median survival time, dose: 200.0 mg/kg/injection, schedule: Q03HX024 (ip), vehicle: water)"
COc1ccc(Cl)cc1NC(=O)N(CCCl)N=O,103 % of control and 165 % of control,–
N=c1ccn2c(n1)OC1C(O)C(CO)OC12 (configuration not stated),–,120 % of control and 600 % of control

# Reference: PubChem BioAssay AID248 (DTP/NCI, 2004)
